Assay results from ChEMBL document CHEMBL4689842, “EUbOPEN Chemogenomics Library wave 1” (2021).
Not every entry of the source has a single result; some have several. This list holds those alone. An entry can have further records. Results that share an entry repeat one measurement (runs, samples, wells, individuals or studies).

Assays:
Assay type in all cases: toxicity, cell-based
Fibroblast = assay: Multiplex assay against human fibroblast
Procedure, shortened: (§1)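 Compound was added to live cells that had been stained at seeding with Hoechst33342, BioTracker Green Microtubule Cytoskeleton Dye, MitoTracker Red and Annexin V Alexa Fluor 680, and imaging followed on a CQ1 microscope at 37°C and 5% CO2. CellPathfinder machine-learning gating divided cells into Hoechst high-intensity objects or normal cells, normal cells into healthy, pyknosed or fragmented nuclei, and pyknosed cells into mitotic or apoptotic. Tubulin, mitochondrial-mass and membrane-permeability phenotypes are per cents of healthy-nucleus cells.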

HEK-293T = assay: Multiplex assay against HEK293T; settings: human, 10 µM, compound concentration 10 uM; procedure, shortened: as §1;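 as to Population Tubulin-Different-Phenotype (%): share of the cells with healthy nuclei that show this phenotype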
U2OS = assay: Multiplex assay against U2OS; settings: human; procedure, shortened: as §1
[1] = 12 h, 10 µM, compound concentration 10 uM, replicate 1
[2] = 12 h, 10 µM, compound concentration 10 uM, replicate 2
[3] = 24 h, 10 µM, compound concentration 10 uM, replicate 1
[4] = 24 h, 10 µM, compound concentration 10 uM, replicate 2
[5] = 12 h, 1 µM, compound concentration 1 uM, replicate 1
[6] = 12 h, 1 µM, compound concentration 1 uM, replicate 2
[7] = 24 h, 1 µM, compound concentration 1 uM, replicate 1
[8] = 24 h, 1 µM, compound concentration 1 uM, replicate 2

## COc1cc(N2CCC(N(C)C)CC2)ccc1Nc1ncc(Cl)c(Nc2ccccc2P(C)(C)=O)n1
Fibroblast; [1]
  Population Membrane Permeable-Phenotype (%): 23% and 1%
  Population Tubulin-Different-Phenotype (%): 69% and 16%
Fibroblast; [2]
  Population Mitochondria Different-Phenotype (%): 16% and 85%
  Population Mitotic Cells (%): 62% and 12%
Fibroblast; [3]
  Population Membrane Permeable-Phenotype (%): 17% and 3%
  Population Tubulin-Different-Phenotype (%): 70% and 13%
Fibroblast; [4]
  Population Membrane Permeable-Phenotype (%): 0% and 100%
  Population Mitochondria Different-Phenotype (%): 25% and 85%
  Population Mitotic Cells (%): 33% and 7%
  Population Pyknosed Nuclei (%): 17% and 58%
HEK-293T; 12 h, replicate 1
  Population Apoptotic (%): 70% and 21%
  Population Mitochondria Different-Phenotype (%): 100% and 25%
HEK-293T; 12 h, replicate 2
  Population Apoptotic (%): 58% and 12%
  Population Healthy Nuclei (%): 24% and 79%
  Population Pyknosed Nuclei (%): 72% and 16%
  Total Cell Count: 142 and 933
HEK-293T; 24 h, replicate 2
  Population Apoptotic (%): 79% and 24%
  Population Healthy Nuclei (%): 20% and 81%
  Population Mitotic Cells (%): 20% and 75%
  Population Pyknosed Nuclei (%): 72% and 13%
  Total Cell Count: 149 and 899

## C1=N/C2=N/c3ccc(OCCN4CCCC4)c(c3)COC/C=C\COCc3cccc(c3)C(=C1)N2
Fibroblast; [1]
  Population Healthy Nuclei (%): 15%, 52%, 54%
  Population Mitochondria Different-Phenotype (%): 75%, 48%, 5%
  Population Pyknosed Nuclei (%): 61%, 27%, 12%
  Population Tubulin-Different-Phenotype (%): 75%, 68%, 10%
  Total Cell Count: 89, 287, 212
Fibroblast; [2]
  Population Healthy Nuclei (%): 9%, 34%, 17%
  Population Hoechst High Intensity Objects (%): 39%, 31%, 10%
  Population Membrane Permeable-Phenotype (%): 16%, 5%, 90%
  Population Mitochondria Different-Phenotype (%): 33%, 0%, 100%
  Population Mitotic Cells (%): 31%, 55%, 9%
  Population Tubulin-Different-Phenotype (%): 16%, 29%, 100%
Fibroblast; [3]
  Population Healthy Nuclei (%): 15%, 25%, 52%
  Population Membrane Permeable-Phenotype (%): 36% and 2%
  Population Mitochondria Different-Phenotype (%): 36%, 82%, 5%
  Population Pyknosed Nuclei (%): 48%, 42%, 13%
  Total Cell Count: 83, 288, 243
Fibroblast; [4]
  Population Fragmented Nuclei (%): 67%, 56%, 4%
  Population Healthy Nuclei (%): 9% and 30%
  Population Membrane Permeable-Phenotype (%): 33%, 0%, 81%
  Population Mitochondria Different-Phenotype (%): 33%, 0%, 100%
  Population Mitotic Cells (%): 7%, 42%, 3%
  Population Pyknosed Nuclei (%): 22%, 12%, 70%
  Population Tubulin-Different-Phenotype (%): 16%, 17%, 100%
U2OS; [1]
  Population Healthy Nuclei (%): 19%, 13%, 53%
  Population Membrane Permeable-Phenotype (%): 16%, 78%, 38%
  Population Mitochondria Different-Phenotype (%): 94% and 23%
  Population Mitotic Cells (%): 12%, 11%, 44%
U2OS; [2]
  Population Healthy Nuclei (%): 18%, 17%, 58%
  Population Membrane Permeable-Phenotype (%): 45%, 90%, 27%
  Population Mitochondria Different-Phenotype (%): 50%, 100%, 25%
  Population Mitotic Cells (%): 10%, 9%, 31%
U2OS; [3]
  Population Healthy Nuclei (%): 0%, 14%, 56%
  Population Membrane Permeable-Phenotype (%): 100%, 84%, 30%
  Population Mitotic Cells (%): 1% and 17%
U2OS; [4]
  Population Fragmented Nuclei (%): 52%, 4%, 15%
  Population Healthy Nuclei (%): 10%, 25%, 65%
  Population Hoechst High Intensity Objects (%): 16%, 32%, 9%
  Population Pyknosed Nuclei (%): 37%, 70%, 19%
HEK-293T; 12 h, replicate 1
  Population Apoptotic (%): 46%, 26%, 89%
  Population Healthy Nuclei (%): 12%, 31%, 0%
  Population Mitochondria Different-Phenotype (%): 40%, 20%, 100%
  Population Mitotic Cells (%): 53%, 73%, 10%
  Population Tubulin-Different-Phenotype (%): 45%, 49%, 0%
HEK-293T; 12 h, replicate 2
  Population Apoptotic (%): 50%, 83%, 20%
  Population Fragmented Nuclei (%): 11%, 5%, 2%
  Population Healthy Nuclei (%): 33%, 6%, 58%
  Population Hoechst High Intensity Objects (%): 22%, 20%, 5%
  Population Mitotic Cells (%): 49%, 16%, 79%
  Total Cell Count: 735, 219, 724
HEK-293T; 24 h, replicate 1
  Population Healthy Nuclei (%): 0%, 15%, 33%
  Population Mitochondria Different-Phenotype (%): 0%, 44%, 30%
  Population Mitotic Cells (%): 12%, 41%, 70%
  Population Tubulin-Different-Phenotype (%): 0%, 53%, 64%
HEK-293T; 24 h, replicate 2
  Population Apoptotic (%): 86%, 74%, 24%
  Population Fragmented Nuclei (%): 12%, 24%, 2%
  Population Healthy Nuclei (%): 7%, 19%, 61%
  Population Membrane Permeable-Phenotype (%): 30% and 4%
  Population Mitotic Cells (%): 13%, 25%, 75%
  Total Cell Count: 213, 721, 724

## CCN1CCN(Cc2ccc(NC(=O)c3ccc(C)c(Oc4ccnc5[nH]ccc45)c3)cc2C(F)(F)F)CC1.Cl.Cl.Cl.O
Fibroblast; [2]
  Population Apoptotic (%): 0% and 55%
  Population Pyknosed Nuclei (%): 2% and 19%
Fibroblast; [4]
  Population Membrane Permeable-Phenotype (%): 35% and 0%
  Population Mitochondria Different-Phenotype (%): 11% and 37%
  Population Pyknosed Nuclei (%): 4% and 30%
U2OS; [1]
  Population Fragmented Nuclei (%): 29% and 3%
  Population Mitochondria Different-Phenotype (%): 84% and 8%
  Population Pyknosed Nuclei (%): 35% and 8%
  Population Tubulin-Different-Phenotype (%): 98% and 12%
U2OS; [2]
  Population Apoptotic (%): 69% and 12%
  Population Mitochondria Different-Phenotype (%): 100% and 16%
  Population Tubulin-Different-Phenotype (%): 100% and 9%
U2OS; [3]
  Population Fragmented Nuclei (%): 18% and 2%
  Population Healthy Nuclei (%): 21% and 86%
  Population Hoechst High Intensity Objects (%): 20% and 1%
  Population Membrane Permeable-Phenotype (%): 68% and 11%
  Population Mitochondria Different-Phenotype (%): 93% and 7%
  Population Mitotic Cells (%): 10% and 62%
U2OS; [4]
  Population Healthy Nuclei (%): 23% and 77%
  Population Membrane Permeable-Phenotype (%): 70% and 15%
  Population Mitochondria Different-Phenotype (%): 100% and 15%
  Population Mitotic Cells (%): 9% and 41%
  Population Pyknosed Nuclei (%): 60% and 11%
  Population Tubulin-Different-Phenotype (%): 100% and 7%
HEK-293T; 12 h, replicate 1
  Population Mitochondria Different-Phenotype (%): 14% and 59%
  Population Tubulin-Different-Phenotype (%): 9% and 75%
HEK-293T; 12 h, replicate 2
  Population Apoptotic (%): 52% and 12%
  Population Mitochondria Different-Phenotype (%): 67% and 20%
  Population Pyknosed Nuclei (%): 30% and 6%
  Population Tubulin-Different-Phenotype (%): 97% and 21%
HEK-293T; 24 h, replicate 1
  Population Apoptotic (%): 78% and 23%
  Population Mitochondria Different-Phenotype (%): 75% and 10%
  Population Mitotic Cells (%): 21% and 76%
  Population Pyknosed Nuclei (%): 53% and 17%
  Population Tubulin-Different-Phenotype (%): 74% and 24%
HEK-293T; 24 h, replicate 2
  Population Apoptotic (%): 67% and 8%
  Population Fragmented Nuclei (%): 1% and 13%
  Population Mitochondria Different-Phenotype (%): 80% and 4%
  Population Pyknosed Nuclei (%): 26% and 2%
  Population Tubulin-Different-Phenotype (%): 98% and 19%

## CC(C)Oc1ccc(C(=O)N[C@H](CNC(=O)CN(C)C)Cc2ccc(-c3cn4cccc([C@H](C)O)c4n3)cc2)cc1Cl [GSK-923295A]
Fibroblast; [1]
  Population Membrane Permeable-Phenotype (%): 35% and 10%
  Total Cell Count: 71 and 502
Fibroblast; [2]
  Population Fragmented Nuclei (%): 55% and 9%
  Population Hoechst High Intensity Objects (%): 34% and 2%
  Population Mitochondria Different-Phenotype (%): 21% and 89%
Fibroblast; [3]
  Total Cell Count: 102 and 537
Fibroblast; [4]
  Population Fragmented Nuclei (%): 54% and 11%
  Population Hoechst High Intensity Objects (%): 49% and 2%
  Population Membrane Permeable-Phenotype (%): 13% and 53%
HEK-293T; 12 h, replicate 1
  Population Membrane Permeable-Phenotype (%): 33% and 0%
  Population Mitochondria Different-Phenotype (%): 23% and 100%
  Population Mitotic Cells (%): 66% and 6%
  Total Cell Count: 516 and 143
HEK-293T; 12 h, replicate 2
  Population Apoptotic (%): 67% and 17%
  Population Fragmented Nuclei (%): 8% and 2%
  Total Cell Count: 132 and 948
HEK-293T; 24 h, replicate 1
  Population Mitotic Cells (%): 7% and 58%
  Total Cell Count: 145 and 508
HEK-293T; 24 h, replicate 2
  Population Apoptotic (%): 80% and 18%
  Population Membrane Permeable-Phenotype (%): 1% and 21%
  Population Mitotic Cells (%): 20% and 81%
  Total Cell Count: 142 and 1095

## Cc1c(Oc2ccc(F)cc2)c(OC(C)C)nn1-c1ccc(C2CC2)cn1 [IPP/CNRS-A019]
Fibroblast; [2]
  Population Apoptotic (%): 27% and 100%
  Population Membrane Permeable-Phenotype (%): 22% and 7%
  Population Mitotic Cells (%): 72% and 0%
  Population Pyknosed Nuclei (%): 17% and 4%
  Population Tubulin-Different-Phenotype (%): 6% and 35%
Fibroblast; [4]
  Population Apoptotic (%): 16% and 100%
  Population Mitochondria Different-Phenotype (%): 17% and 5%
  Population Mitotic Cells (%): 83% and 0%
  Population Pyknosed Nuclei (%): 9% and 1%
  Population Tubulin-Different-Phenotype (%): 3% and 27%
U2OS; [4]
  Population Apoptotic (%): 77% and 16%
  Population Mitotic Cells (%): 22% and 83%
HEK-293T; 12 h, replicate 2
  Population Tubulin-Different-Phenotype (%): 21% and 5%
HEK-293T; 24 h, replicate 2
  Population Mitochondria Different-Phenotype (%): 1% and 12%

## CS(=O)(=O)N1CCN(Cc2cc3nc(-c4cccc5[nH]ncc45)nc(N4CCOCC4)c3s2)CC1 [PICTILISIB]
Fibroblast; [5]
  Population Hoechst High Intensity Objects (%): 16% and 49%
  Population Tubulin-Different-Phenotype (%): 14% and 80%
Fibroblast; [6]
  Population Mitochondria Different-Phenotype (%): 0% and 45%
  Population Mitotic Cells (%): 20% and 64%
  Population Pyknosed Nuclei (%): 8% and 28%
  Population Tubulin-Different-Phenotype (%): 9% and 45%
Fibroblast; [7]
  Population Mitochondria Different-Phenotype (%): 5% and 65%
  Population Pyknosed Nuclei (%): 12% and 38%
  Population Tubulin-Different-Phenotype (%): 15% and 76%
Fibroblast; [8]
  Population Membrane Permeable-Phenotype (%): 36% and 0%
  Population Mitochondria Different-Phenotype (%): 0% and 100%
  Population Pyknosed Nuclei (%): 11% and 34%
U2OS; [5]
  Population Mitochondria Different-Phenotype (%): 94% and 11%
  Population Pyknosed Nuclei (%): 42% and 10%
U2OS; [6]
  Population Mitochondria Different-Phenotype (%): 90% and 20%
  Population Pyknosed Nuclei (%): 51% and 8%
  Population Tubulin-Different-Phenotype (%): 95% and 26%
U2OS; [7]
  Population Healthy Nuclei (%): 16% and 80%
  Population Hoechst High Intensity Objects (%): 22% and 2%
  Population Mitochondria Different-Phenotype (%): 89% and 12%
  Population Mitotic Cells (%): 8% and 26%
  Population Pyknosed Nuclei (%): 66% and 8%
  Population Tubulin-Different-Phenotype (%): 89% and 22%
U2OS; [8]
  Population Membrane Permeable-Phenotype (%): 95% and 12%
  Population Mitochondria Different-Phenotype (%): 100% and 17%
  Population Pyknosed Nuclei (%): 50% and 10%
  Population Tubulin-Different-Phenotype (%): 100% and 13%
